# From the supplement of paper PMC8728848
# This is one part of the list.
# Tests used:
# Experiment in all cases: glycan array binding signal (z-score within array); higher = stronger binding
# Settings in all cases: glycan notation: IUPAC condensed, linker removed
# [1] = molecular target: Fuc(a1-2)Gal(b1-4)GlcNAc(b1-3)Gal(b1-4)GlcNAc(b1-2)Man(a1-3)[Fuc(a1-2)Gal(b1-4)GlcNAc(b1-3)Gal(b1-4)GlcNAc(b1-2)Man(a1-6)]Man(b1-4)GlcNAc(b1-4)GlcNAc
# Summary of the method: (§1)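 The binding signal is a Z-score computed within each array. Data were drawn from 3228 arrays in the Consortium for Functional Glycomics database, restricted to those with a known protein sequence. Scores were averaged over arrays of the same protein sequence at different concentrations or buffers, and over linkers, and negative values can be taken as non-binding.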
# [2] = molecular target: Fuc(a1-2)Gal(b1-4)GlcNAc(b1-3)Gal(b1-4)GlcNAc(b1-3)Gal(b1-4)GlcNAc
# Summary of the method: as §1
# [3] = molecular target: Fuc(a1-2)Gal(b1-4)GlcNAc(b1-3)GalNAc
# Summary of the method: as §1
# [4] = molecular target: Fuc(a1-2)Gal(b1-4)GlcNAc(b1-3)[Fuc(a1-2)Gal(b1-4)GlcNAc(b1-6)]GalNAc
# Summary of the method: as §1
# [5] = molecular target: Fuc(a1-2)Gal(b1-4)GlcNAc(b1-3)[Fuc(a1-3)[Gal(b1-4)]GlcNAc(b1-6)]Gal(b1-4)Glc
# Summary of the method: as §1
# [6] = molecular target: Fuc(a1-2)Gal(b1-4)GlcNAc(b1-6)GalNAc
# Summary of the method: as §1
# [7] = molecular target: Fuc(a1-2)Gal(b1-4)GlcNAc6S
# Summary of the method: as §1
# [8] = molecular target: Fuc(a1-2)Gal(b1-4)[Fuc(a1-3)]GlcNAc
# Summary of the method: as §1
# [9] = molecular target: Fuc(a1-2)Gal(b1-4)[Fuc(a1-3)]GlcNAc(b1-2)Man(a1-3)[Fuc(a1-2)Gal(b1-4)[Fuc(a1-3)]GlcNAc(b1-2)Man(a1-6)]Man(b1-4)GlcNAc(b1-4)[Fuc(a1-6)]GlcNAc
# Summary of the method: as §1
# [10] = molecular target: Fuc(a1-2)Gal(b1-4)[Fuc(a1-3)]GlcNAc(b1-2)[Fuc(a1-2)Gal(b1-4)[Fuc(a1-3)]GlcNAc(b1-4)]Man(a1-3)[Fuc(a1-2)Gal(b1-4)[Fuc(a1-3)]GlcNAc(b1-2)Man(a1-6)]Man(b1-4)GlcNAc(b1-4)GlcNAc
# Summary of the method: as §1
# [11] = molecular target: Fuc(a1-2)Gal(b1-4)[Fuc(a1-3)]GlcNAc(b1-3)Gal(b1-4)[Fuc(a1-3)]GlcNAc
# Summary of the method: as §1
# [12] = molecular target: Fuc(a1-2)Gal(b1-4)[Fuc(a1-3)]GlcNAc(b1-3)Gal(b1-4)[Fuc(a1-3)]GlcNAc(b1-3)Gal(b1-4)[Fuc(a1-3)]GlcNAc
# Summary of the method: as §1
# [13] = molecular target: Fuc(a1-2)Gal(b1-4)[Fuc(a1-3)]GlcNAc(b1-3)GalNAc
# Summary of the method: as §1
# [14] = molecular target: Fuc(a1-2)Gal(b1-4)[Fuc(a1-3)]GlcNAc(b1-3)[Neu5Ac(a2-6)Gal(b1-4)GlcNAc(b1-6)]Gal(b1-4)Glc
# Summary of the method: as §1
# [15] = molecular target: Fuc(a1-2)Gal3S(b1-4)GlcNAc
# Summary of the method: as §1
# [16] = molecular target: Fuc(a1-2)Gal6S(b1-3)GlcNAc
# Summary of the method: as §1
# [17] = molecular target: Fuc(a1-2)Gal6S(b1-3)GlcNAc6S
# Summary of the method: as §1
# Fuc(a1-2)Gal6S(b1-4)Glc = molecular target: Fuc(a1-2)Gal6S(b1-4)Glc
# Summary of the method: as §1
# [18] = molecular target: Fuc(a1-2)Gal6S(b1-4)Glc6S
# Summary of the method: as §1
# Fuc(a1-2)[Gal(a1-3)]Gal = molecular target: Fuc(a1-2)[Gal(a1-3)]Gal
# Summary of the method: as §1
# [19] = molecular target: Fuc(a1-2)[Gal(a1-3)]Gal(b1-3)GalNAc
# Summary of the method: as §1
# [20] = molecular target: Fuc(a1-2)[Gal(a1-3)]Gal(b1-3)GalNAc(b1-3)Gal(a1-4)Gal(b1-4)Glc
# Summary of the method: as §1
# [21] = molecular target: Fuc(a1-2)[Gal(a1-3)]Gal(b1-3)GlcNAc
# Summary of the method: as §1
# [22] = molecular target: Fuc(a1-2)[Gal(a1-3)]Gal(b1-3)GlcNAc(b1-2)Man(a1-3)[Fuc(a1-2)[Gal(a1-3)]Gal(b1-3)GlcNAc(b1-2)Man(a1-6)]Man(b1-4)GlcNAc(b1-4)GlcNAc
# Summary of the method: as §1
# [23] = molecular target: Fuc(a1-2)[Gal(a1-3)]Gal(b1-3)GlcNAc(b1-2)Man(a1-3)[Fuc(a1-2)[Gal(a1-3)]Gal(b1-3)GlcNAc(b1-2)Man(a1-6)]Man(b1-4)GlcNAc(b1-4)[Fuc(a1-6)]GlcNAc
# Summary of the method: as §1
# [24] = molecular target: Fuc(a1-2)[Gal(a1-3)]Gal(b1-3)GlcNAc(b1-3)GalNAc
# Summary of the method: as §1
# [25] = molecular target: Fuc(a1-2)[Gal(a1-3)]Gal(b1-3)GlcNAc(b1-6)GalNAc
# Summary of the method: as §1
# [26] = molecular target: Fuc(a1-2)[Gal(a1-3)]Gal(b1-4)Glc
# Summary of the method: as §1
# [27] = molecular target: Fuc(a1-2)[Gal(a1-3)]Gal(b1-4)GlcNAc
# Summary of the method: as §1
# [28] = molecular target: Fuc(a1-2)[Gal(a1-3)]Gal(b1-4)GlcNAc(b1-2)Man
# Summary of the method: as §1
# [29] = molecular target: Fuc(a1-2)[Gal(a1-3)]Gal(b1-4)GlcNAc(b1-2)Man(a1-3)[Fuc(a1-2)[Gal(a1-3)]Gal(b1-4)GlcNAc(b1-2)Man(a1-6)]Man(b1-4)GlcNAc(b1-4)GlcNAc
# Summary of the method: as §1
# [30] = molecular target: Fuc(a1-2)[Gal(a1-3)]Gal(b1-4)GlcNAc(b1-2)Man(a1-3)[Fuc(a1-2)[Gal(a1-3)]Gal(b1-4)GlcNAc(b1-2)Man(a1-6)]Man(b1-4)GlcNAc(b1-4)[Fuc(a1-6)]GlcNAc
# Summary of the method: as §1
# [31] = molecular target: Fuc(a1-2)[Gal(a1-3)]Gal(b1-4)GlcNAc(b1-3)GalNAc
# Summary of the method: as §1
# [32] = molecular target: Fuc(a1-2)[Gal(a1-3)]Gal(b1-4)GlcNAc(b1-6)GalNAc
# Summary of the method: as §1
# [33] = molecular target: Fuc(a1-2)[Gal(a1-3)]Gal(b1-4)[Fuc(a1-3)]Glc
# Summary of the method: as §1
# [34] = molecular target: Fuc(a1-2)[Gal(a1-3)]Gal(b1-4)[Fuc(a1-3)]GlcNAc
# Summary of the method: as §1
# [35] = molecular target: Fuc(a1-2)[Gal(a1-3)]Gal(b1-4)[Fuc(a1-3)]GlcNAc(b1-3)GalNAc
# Summary of the method: as §1
# [36] = molecular target: Fuc(a1-2)[Gal(a1-4)]Gal(b1-4)GlcNAc
# Summary of the method: as §1
# [37] = molecular target: Fuc(a1-2)[GalNAc(a1-3)]Gal
# Summary of the method: as §1
# [38] = molecular target: Fuc(a1-2)[GalNAc(a1-3)]Gal(b1-3)GalNAc(a1-3)[Fuc(a1-2)]Gal(b1-4)GlcNAc
# Summary of the method: as §1
# [39] = molecular target: Fuc(a1-2)[GalNAc(a1-3)]Gal(b1-3)GalNAc(b1-3)Gal(a1-4)Gal(b1-4)Glc
# Summary of the method: as §1
# [40] = molecular target: Fuc(a1-2)[GalNAc(a1-3)]Gal(b1-3)GlcNAc
# Summary of the method: as §1
# [41] = molecular target: Fuc(a1-2)[GalNAc(a1-3)]Gal(b1-3)GlcNAc(b1-2)Man(a1-3)[Fuc(a1-2)[GalNAc(a1-3)]Gal(b1-3)GlcNAc(b1-2)Man(a1-6)]Man(b1-4)GlcNAc(b1-4)GlcNAc
# Summary of the method: as §1
# [42] = molecular target: Fuc(a1-2)[GalNAc(a1-3)]Gal(b1-3)GlcNAc(b1-2)Man(a1-3)[Fuc(a1-2)[GalNAc(a1-3)]Gal(b1-3)GlcNAc(b1-2)Man(a1-6)]Man(b1-4)GlcNAc(b1-4)[Fuc(a1-6)]GlcNAc
# Summary of the method: as §1
# [43] = molecular target: Fuc(a1-2)[GalNAc(a1-3)]Gal(b1-3)GlcNAc(b1-3)GalNAc
# Summary of the method: as §1
binder,measurement,setting,value
Microvirin-2 (Microcystis aeruginosa) (protein) MPNFSHTCSSINYDPDSTILSAECQARDGEWLPTELRLSDHIGNIDGELQFGDQNFQETCQDCHLEFGDGEQSVWLVCTCQTMDGEWKSTQILLDSQIDNNDSQLEIGGSMPNFSHTCSSINYDPDSTILSAECQARDGEWLPTELRLSDHIGNIDGELQFGDQNFQETCQDCHLEFGDGEQSVWLVCTCQTMDGEWKSTQILLDSQIDNNDSQLEIG,glycan array binding signal (z-score),[1],-0.09
same,glycan array binding signal (z-score),[2],-0.143
same,glycan array binding signal (z-score),[3],-0.097
same,glycan array binding signal (z-score),[4],-0.118
same,glycan array binding signal (z-score),[5],-0.131
same,glycan array binding signal (z-score),[6],-0.079
same,glycan array binding signal (z-score),[7],-0.127
same,glycan array binding signal (z-score),[8],-0.135
same,glycan array binding signal (z-score),[9],-0.105
same,glycan array binding signal (z-score),[10],-0.09
same,glycan array binding signal (z-score),[11],-0.128
same,glycan array binding signal (z-score),[12],-0.113
same,glycan array binding signal (z-score),[13],-0.087
same,glycan array binding signal (z-score),[14],-0.144
same,glycan array binding signal (z-score),[15],-0.132
same,glycan array binding signal (z-score),[16],-0.13
same,glycan array binding signal (z-score),[17],-0.076
same,glycan array binding signal (z-score),Fuc(a1-2)Gal6S(b1-4)Glc,-0.132
same,glycan array binding signal (z-score),[18],-0.133
same,glycan array binding signal (z-score),Fuc(a1-2)[Gal(a1-3)]Gal,-0.136
same,glycan array binding signal (z-score),[19],-0.134
same,glycan array binding signal (z-score),[20],-0.127
same,glycan array binding signal (z-score),[21],-0.138
same,glycan array binding signal (z-score),[22],-0.06
same,glycan array binding signal (z-score),[23],0.28
same,glycan array binding signal (z-score),[24],-0.132
same,glycan array binding signal (z-score),[25],-0.13
same,glycan array binding signal (z-score),[26],-0.128
same,glycan array binding signal (z-score),[27],-0.144
same,glycan array binding signal (z-score),[28],-0.123
same,glycan array binding signal (z-score),[29],-0.113
same,glycan array binding signal (z-score),[30],0.077
same,glycan array binding signal (z-score),[31],-0.133
same,glycan array binding signal (z-score),[32],-0.129
same,glycan array binding signal (z-score),[33],-0.14
same,glycan array binding signal (z-score),[34],-0.129
same,glycan array binding signal (z-score),[35],-0.126
same,glycan array binding signal (z-score),[36],-0.14
same,glycan array binding signal (z-score),[37],-0.139
same,glycan array binding signal (z-score),[38],-0.142
same,glycan array binding signal (z-score),[39],-0.14
same,glycan array binding signal (z-score),[40],-0.131
same,glycan array binding signal (z-score),[41],-0.127
same,glycan array binding signal (z-score),[42],-0.002
same,glycan array binding signal (z-score),[43],-0.108
